Tests used:
Format in all cases: cell-based
primary human T cells [1] = assay: Transduction efficiency: surface CD19 CAR expression by flow cytometry using CD19-Fc (% CAR positive cells); details: Example 2
primary human T cells [2] = assay: Membrane bound IL12 expression within the CAR+ gate, 100 μM acetazolamide vs vehicle (Example 2, Table 11); details: 20 hours
Experimental: On day 0, primary human T cells were stimulated with Dynabeads (T-expander CD3/CD28) at a 3:1 bead: cell ratio in media containing 10% fetal bovine serum (FBS). The next day, lentivirus produced with constructs OT-002007, OT-002008, OT-002113, OT-002009, OT-002010, OT-002012, or OT-002113 were added in the presence of reduced serum (5% FBS). On day 2, the cells were diluted 1:2 with fresh 10% FBS media. […] After overnight incubation, transduction efficiency was analyzed by flow cytometry using CD19-Fc to detect surface CAR expression. Surface IL12 expression within the CAR+ cell gate was detected with an anti-IL12p70 antibody (BD, Franklin Lakes, NJ).

Nalm-6 cells = assay: 48 hour cytotoxicity assay, T cells co-cultured with Nalm-6 cells (NucRed), Incucyte (Example 4, Table 14)
Source text: The following constructs were transduced into T cells: OT-001356 (nucleic acid sequence SEQ ID NO: 6081 encodes two amino acid sequences, first is SEQ ID NO: 6082 (nucleic acid sequence SEQ ID NO: 6083) second is SEQ ID NO: 6084 (nucleic acid sequence SEQ ID NO: 6085)), OT-001356 (amino acid sequence provided as SEQ ID NO: 6092 and nucleic acid is SEQ ID NO: 6093) OT-001407 (amino acid sequence provided as SEQ ID NO: 6086 and nucleic acid is SEQ ID NO: 6087), OT-001895, OT-002011, OT-002111, OT-0020%, OT-02171. The cells were expanded for 10 days and utilized for cytotoxicity assays. Percentage of CAR positive cells obtained with each of the constructs was as follows: OT-001356: 45.3%; OT-001407, OT-001895: 29.4%, OT-002011: 24.3%, OT-002111: 19.6%, OT-0020%: 6.08%, OT-002171: 13.3%. For cytotoxicity assays, T cells were thawed and co-cultured with Nalm-6 cells (stably expressing NucRed) at different T cells to Nalm-6 cell culture ratios. Target cell viability was determined by measuring cellular fluorescence over time using an Incucyte assay and the results are shown in Table 14.

B1: OT-001895: constitutively expressed CAR IL12 construct (protein)
chain: IWELKKDVYVVELDWYPDAPGEMVVLTCDTPEEDGITWTLDQSSEVLGSGKTLTIQVKEFGDAGQYTCHKGGEVLSHSLLLLHKKEDGIWSTDILKDQKEPKNKTFLRCEAKNYSGRFTCWWLTTISTDLTFSVKSSRGSSDPQGVTCGAATLSAERVRGDNKEYEYSVECQEDSACPAAEESLPIEVMVDAVHKLKYENYTSSFFIRDIIKPDPPKNLQLKPLKNSRQVEVSWEYPDTWSTPHSYFSLTFCVQVQGKSKREKKDRVFTDKTSATVICRKNASISVRAQDRYYSSSWSEWASVPCSGGGGSGGGGSGGGGSRNLPVATPDPGMFPCLHHSQNLLRAVSNMLQKARQTLEFYPCTSEEIDHEDITKDKTSTVEACLPLELTKNESCLNSRETSFITNGSCLASRKTSFMMALCLSSIYEDLKMYQVEFKTMNAKLLMDPKRQIFLDQNMLAVIDELMQALNFNSETVPQKSSLEEPDFYKTKIKLCILLHAFRIRAVTIDRVMSYLNASGSGSGSGSGSGSGSGSGSGSGSGSGSGSGSTTTPAPRPPTPAPTIASQPLSLRPEACRPAAGGAVHTRGLDFACDIYIWAPLAGTCGVLLLSLVITLYCGS
Primary human T cells [1]
  CAR: 34.3
Primary human T cells [2]
  IL12 Geometric Mean within CAR+ Gate, DMSO: 140686
Nalm-6 cells; E:T ratio 3:1, 48 hour
  Average Total Nalm6-NucRed Area after 48 hour at E:T ratio of 3:1: 43,856
Nalm-6 cells; E:T ratio 10:1, 48 hour
  Average Total Nalm6-NucRed Area after 48 hour at E:T ratio of 10:1: 38,089
